# Reference: the supplement of paper PMC8728848
# Some of the results follow.
# What was measured:
# Assay in all cases: glycan array binding signal (z-score within array); higher = stronger binding
# Conditions in all cases: glycan notation: IUPAC condensed, linker removed
# Gal(b1-2)Gal = target: Gal(b1-2)Gal
# Outline: (§1)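 Glycan array data were curated from 3228 arrays in the Consortium for Functional Glycomics database and kept only where the protein sequence was available. Glycan names were converted to IUPAC-condensed notation, and columns mapping to the same glycan were averaged. The binding signal is a within-array Z-score, averaged across arrays of the same protein sequence at different concentrations or buffers and across linkers. Negative Z-scores can be read as non-binding.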
# Gal(b1-3)Gal = target: Gal(b1-3)Gal
# Outline: as §1
# Gal(b1-3)Gal(b1-4)GlcNAc = target: Gal(b1-3)Gal(b1-4)GlcNAc
# Outline: as §1
# Gal(b1-3)GalNAc = target: Gal(b1-3)GalNAc
# Outline: as §1
# [1] = target: Gal(b1-3)GalNAc(a1-3)[Fuc(a1-2)]Gal(b1-4)Glc
# Outline: as §1
# [2] = target: Gal(b1-3)GalNAc(a1-3)[Fuc(a1-2)]Gal(b1-4)GlcNAc
# Outline: as §1
# Gal(b1-3)GalNAc(b1-3)Gal = target: Gal(b1-3)GalNAc(b1-3)Gal
# Outline: as §1
# [3] = target: Gal(b1-3)GalNAc(b1-3)Gal(a1-4)Gal(b1-4)Glc
# Outline: as §1
# [4] = target: Gal(b1-3)GalNAc(b1-4)Gal(b1-4)Glc
# Outline: as §1
# [5] = target: Gal(b1-3)GalNAc(b1-4)[Neu5Ac(a2-3)]Gal(b1-4)Glc
# Outline: as §1
# Gal(b1-3)GlcNAc = target: Gal(b1-3)GlcNAc
# Outline: as §1
# [6] = target: Gal(b1-3)GlcNAc(a1-3)Gal(b1-4)GlcNAc
# Outline: as §1
# [7] = target: Gal(b1-3)GlcNAc(a1-6)Gal(b1-4)GlcNAc
# Outline: as §1
# Gal(b1-3)GlcNAc(b1-2)Man = target: Gal(b1-3)GlcNAc(b1-2)Man
# Outline: as §1
# [8] = target: Gal(b1-3)GlcNAc(b1-2)Man(a1-3)[Gal(b1-3)GlcNAc(b1-2)Man(a1-6)]Man(b1-4)GlcNAc(b1-4)GlcNAc
# Outline: as §1
# [9] = target: Gal(b1-3)GlcNAc(b1-2)Man(a1-3)[Gal(b1-3)GlcNAc(b1-2)Man(a1-6)]Man(b1-4)GlcNAc(b1-4)[Fuc(a1-6)]GlcNAc
# Outline: as §1
# [10] = target: Gal(b1-3)GlcNAc(b1-2)Man(a1-3)[GlcNAc(b1-4)][Gal(b1-3)GlcNAc(b1-2)Man(a1-6)]Man(b1-4)GlcNAc(b1-4)GlcNAc
# Outline: as §1
# [11] = target: Gal(b1-3)GlcNAc(b1-2)[Gal(b1-3)GlcNAc(b1-6)]Man(a1-6)[Gal(b1-3)GlcNAc(b1-2)Man(a1-3)]Man(b1-4)GlcNAc(b1-4)GlcNAc
# Outline: as §1
# [12] = target: Gal(b1-3)GlcNAc(b1-3)Gal(b1-3)GlcNAc
# Outline: as §1
# [13] = target: Gal(b1-3)GlcNAc(b1-3)Gal(b1-4)Glc
# Outline: as §1
# [14] = target: Gal(b1-3)GlcNAc(b1-3)Gal(b1-4)GlcNAc
# Outline: as §1
# [15] = target: Gal(b1-3)GlcNAc(b1-3)Gal(b1-4)GlcNAc(b1-2)Man(a1-3)[Gal(b1-3)GlcNAc(b1-3)Gal(b1-4)GlcNAc(b1-2)Man(a1-6)]Man(b1-4)GlcNAc(b1-4)GlcNAc
# Outline: as §1
# [16] = target: Gal(b1-3)GlcNAc(b1-3)Gal(b1-4)GlcNAc(b1-2)[Gal(b1-3)GlcNAc(b1-3)Gal(b1-4)GlcNAc(b1-6)]Man(a1-6)[Gal(b1-3)GlcNAc(b1-3)Gal(b1-4)GlcNAc(b1-2)Man(a1-3)]Man(b1-4)GlcNAc(b1-4)[Fuc(a1-6)]GlcNAc
# Outline: as §1
# [17] = target: Gal(b1-3)GlcNAc(b1-3)Gal(b1-4)GlcNAc(b1-3)Gal(b1-4)GlcNAc(b1-2)[Gal(b1-3)GlcNAc(b1-3)Gal(b1-4)GlcNAc(b1-3)Gal(b1-4)GlcNAc(b1-6)]Man(a1-6)[Gal(b1-3)GlcNAc(b1-3)Gal(b1-4)GlcNAc(b1-3)Gal(b1-4)GlcNAc(b1-2)Man(a1-3)]Man(b1-4)GlcNAc(b1-4)[Fuc(a1-6)]GlcNAc
# Outline: as §1
# [18] = target: Gal(b1-3)GlcNAc(b1-3)Gal(b1-4)GlcNAc(b1-6)[Gal(b1-3)GlcNAc(b1-3)]Gal(b1-4)Glc
# Outline: as §1
# [19] = target: Gal(b1-3)GlcNAc(b1-3)Gal(b1-4)[Fuc(a1-3)]GlcNAc
# Outline: as §1
# [20] = target: Gal(b1-3)GlcNAc(b1-3)Gal(b1-4)[Fuc(a1-3)]GlcNAc(b1-6)[Gal(b1-3)GlcNAc(b1-3)]Gal(b1-4)Glc
# Outline: as §1
# [21] = target: Gal(b1-3)GlcNAc(b1-3)GalNAc
# Outline: as §1
# [22] = target: Gal(b1-3)GlcNAc(b1-6)Gal(b1-4)GlcNAc
# Outline: as §1
# [23] = target: Gal(b1-3)GlcNAc(b1-6)GalNAc
# Outline: as §1
# [24] = target: Gal(b1-3)GlcNAc(b1-6)[Gal(b1-3)]GalNAc
# Outline: as §1
# Gal(b1-3)GlcNAc6S = target: Gal(b1-3)GlcNAc6S
# Outline: as §1
# [25] = target: Gal(b1-3)[Fuc(a1-4)]GlcNAc
# Outline: as §1
# [26] = target: Gal(b1-3)[Fuc(a1-4)]GlcNAc(b1-2)Man
# Outline: as §1
# [27] = target: Gal(b1-3)[Fuc(a1-4)]GlcNAc(b1-2)Man(a1-3)[Gal(b1-3)[Fuc(a1-4)]GlcNAc(b1-2)Man(a1-6)]Man(b1-4)GlcNAc(b1-4)[Fuc(a1-6)]GlcNAc
# Outline: as §1
# [28] = target: Gal(b1-3)[Fuc(a1-4)]GlcNAc(b1-3)Gal(b1-3)[Fuc(a1-4)]GlcNAc
# Outline: as §1
# [29] = target: Gal(b1-3)[Fuc(a1-4)]GlcNAc(b1-3)Gal(b1-4)[Fuc(a1-3)]GlcNAc
# Outline: as §1
# [30] = target: Gal(b1-3)[Fuc(a1-4)]GlcNAc(b1-6)GalNAc
# Outline: as §1
# [31] = target: Gal(b1-3)[GlcNAc(b1-6)]GalNAc
# Outline: as §1
# [32] = target: Gal(b1-3)[Neu5Ac(a2-6)]GalNAc
# Outline: as §1
# [33] = target: Gal(b1-3)[Neu5Ac(a2-6)]GlcNAc(b1-4)Gal(b1-4)Glc
# Outline: as §1
# [34] = target: Gal(b1-3)[Neu5Ac(b2-6)]GalNAc
# Outline: as §1
# Gal(b1-4)Gal = target: Gal(b1-4)Gal
# Outline: as §1
# [35] = target: Gal(b1-4)GalNAc(a1-3)[Fuc(a1-2)]Gal(b1-4)GlcNAc
# Outline: as §1
# [36] = target: Gal(b1-4)GalNAc(b1-3)[Fuc(a1-2)]Gal(b1-4)GlcNAc
# Outline: as §1
binder,measurement,setting,value
RBMC1 (Vibrio cholerae) (protein) QQSQRVVTADNLMYLRSGFAIDAIGTTVNNLVGGPVQGTNGGVLRAPIALDQLQSVEVTSGLYNWGGYHIVAIKFTMKDGSSVLLGSTHYASNKKVETYTVPQGKRIKQINVWTGGWLVEGFQFVY,glycan array binding signal (z-score),Gal(b1-2)Gal,-0.279
same,glycan array binding signal (z-score),Gal(b1-3)Gal,-0.323
same,glycan array binding signal (z-score),Gal(b1-3)Gal(b1-4)GlcNAc,-0.296
same,glycan array binding signal (z-score),Gal(b1-3)GalNAc,-0.3
same,glycan array binding signal (z-score),[1],-0.256
same,glycan array binding signal (z-score),[2],-0.309
same,glycan array binding signal (z-score),Gal(b1-3)GalNAc(b1-3)Gal,-0.237
same,glycan array binding signal (z-score),[3],-0.267
same,glycan array binding signal (z-score),[4],-0.362
same,glycan array binding signal (z-score),[5],-0.362
same,glycan array binding signal (z-score),Gal(b1-3)GlcNAc,-0.37
same,glycan array binding signal (z-score),[6],-0.31
same,glycan array binding signal (z-score),[7],-0.216
same,glycan array binding signal (z-score),Gal(b1-3)GlcNAc(b1-2)Man,-0.204
same,glycan array binding signal (z-score),[8],2.48
same,glycan array binding signal (z-score),[9],0.912
same,glycan array binding signal (z-score),[10],-0.049
same,glycan array binding signal (z-score),[11],-0.266
same,glycan array binding signal (z-score),[12],-0.311
same,glycan array binding signal (z-score),[13],-0.362
same,glycan array binding signal (z-score),[14],-0.406
same,glycan array binding signal (z-score),[15],1.19
same,glycan array binding signal (z-score),[16],0.194
same,glycan array binding signal (z-score),[17],-0.138
same,glycan array binding signal (z-score),[18],-0.289
same,glycan array binding signal (z-score),[19],-0.382
same,glycan array binding signal (z-score),[20],-0.397
same,glycan array binding signal (z-score),[21],-0.347
same,glycan array binding signal (z-score),[22],-0.11
same,glycan array binding signal (z-score),[23],-0.334
same,glycan array binding signal (z-score),[24],-0.368
same,glycan array binding signal (z-score),Gal(b1-3)GlcNAc6S,-0.361
same,glycan array binding signal (z-score),[25],-0.314
same,glycan array binding signal (z-score),[26],-0.309
same,glycan array binding signal (z-score),[27],-0.244
same,glycan array binding signal (z-score),[28],-0.381
same,glycan array binding signal (z-score),[29],-0.3
same,glycan array binding signal (z-score),[30],-0.263
same,glycan array binding signal (z-score),[31],-0.127
same,glycan array binding signal (z-score),[32],-0.332
same,glycan array binding signal (z-score),[33],-0.274
same,glycan array binding signal (z-score),[34],-0.391
same,glycan array binding signal (z-score),Gal(b1-4)Gal,-0.312
same,glycan array binding signal (z-score),[35],-0.396
same,glycan array binding signal (z-score),[36],-0.363
